The whole screen tested about 150,000 compounds, of which about 540 (0.36%) showed an effect of 50% or more. The list shows a part of the results.
Test system: Plasmodium falciparum
Assay: Primary screen in NF54 nanoGlo assay, in single point, at 2uM, 72h; a lower Z score goes with more inhibition
Assay type: functional, Erythrocyte
Settings: timepoint 72 hour

First: C[C@@]1(CCF)NC(=O)N(c2cc(-c3cccs3)on2)C1=O
Second: Cn1c(=O)n(-c2ccc(NC(=O)c3cccs3)cc2)c(=O)n1C
The “% Inhibition” value of the first is higher: -4% for the first, -11% for the second.

Going from Cc1oc(C2CCN(C(=O)NCCc3ccccc3)CC2)nc1C(=O)N1CCCCC1 to Cc1cccc(NC(=O)[C@H]2CCCN(S(=O)(=O)c3c[nH]c(C(=O)N4CCCC4)c3)C2)c1C, the “% Inhibition” value falls from 1% to -18%.

Cc1cc(C)n([C@@H](CNS(=O)(=O)c2cccnc2)c2cccs2)n1 and Cc1cc2nc(C(=O)NCCOc3ccccc3F)cc(C)n2n1 are the same in “% Inhibition” value: -1% for the first, -1% for the second.

First: O=C(C1CCOCC1)N1CC[C@H](Oc2cc(C(F)(F)F)ccn2)C1
Second: CN(c1nc2c(c(N3CCOCC3)n1)CN(C(=O)c1cccc(C(F)(F)F)c1)CC2)C1CCCCC1
The “% Inhibition” value of the first is lower: -13% for the first, -1% for the second.

First: CCO[C@@H](C)c1ncc(C(=O)NCCC2(OC)CCC2)s1
Second: CCC(CC)N1C[C@@H](C(=O)N(C)c2ncc(OC)cn2)CC1=O
The “% Inhibition” value of the first is lower: -7% for the first, 9% for the second.

Compared with CCCOc1ccc2c(c1)OCC(C(=O)NCc1nncn1CC)=C2, CCCN(Cc1c(C(C)C)nn(-c2ccccc2)c1Oc1cccc(F)c1)C(=O)c1ccc(Cl)cc1 is lower in “% Inhibition” value: 9% for the first, -6% for the second.

Compared with Cc1cn(C)nc1NC(=O)N1CCCCC[C@H]1C(F)(F)F, CC(C)Oc1nc(-c2ccc(C(F)(F)F)cc2)n(-c2ccc(NC(=O)C3CCC3)cc2)n1 is higher in “% Inhibition” value: -16% for the first, 7% for the second.

First: Cc1ccc(-c2nc(NCc3ccco3)n(S(C)(=O)=O)n2)cc1
Second: COc1ccc(NC(=O)c2ccc(NCc3ccon3)cc2)cc1
The “% Inhibition” value of the first is lower: -5% for the first, 8% for the second.

Going from O=C1CCCN1c1ccc(CNS(=O)(=O)c2cn[nH]c2)cc1 to Cc1cc(-c2ccc(N3CCOCC3)cc2)c(=O)[nH]n1, the “% Inhibition” value rises from -18% to -5%.

Going from CCN(C)c1ccccc1NC(=O)N(CC(F)F)C1CC1 to Cc1cc(C)c(CNC(=O)[C@@H]2CCCc3ccccc32)c(=O)[nH]1, the “% Inhibition” value falls from -3% to -4%.

Compared with CCOC(=O)c1c(C)c(CCC(=O)NCCN2CCCCC2)n(C)c1C, Cc1noc(C)c1CC(=O)Nc1c(N2CCCC2)nn(C)c1C is lower in “% Inhibition” value: -4% for the first, -11% for the second.

Going from CCOC[C@@H]1CC(F)(F)CN1C1CN(C(=O)c2c[nH]c3ccccc23)C1 to O=C(Cc1ccccc1F)N1CC(n2cnnc2C2CCOCC2)C1, the “% Inhibition” value rises from -14% to 39%.

Compared with CC(C)CCn1ccc(NC2CCN(C)CC2)n1, CCCN1CCC(Nc2cc(-c3ccncc3)nc3ccnn23)CC1 is higher in “% Inhibition” value: -15% for the first, 8% for the second.

First: Cc1ccc([C@H]2c3cc(OCc4ccc(C(=O)NCC(C)C)o4)ccc3CCN2C(=O)C2CCCC2)cc1
Second: O=C(NC1CCN(C2CC2)CC1)c1ccc2c(c1)C(=O)N(CCc1ccccc1)C2=O
The “% Inhibition” value of the first is higher: -8% for the first, -13% for the second.

Going from CC(C)(C)n1ncnc1-c1ccccc1-c1nnn[nH]1 to Cc1oc2ccccc2c1CNc1cnccn1, the “% Inhibition” value falls from -1% to -7%.

Compared with CN(Cc1nnc2n1CCC2)C(=O)[C@@]1(C)CC1(Cl)Cl, Cc1ccc(CNC(=O)Nc2nnc(N3CCC[C@H](C)C3)s2)cc1 is higher in “% Inhibition” value: -15% for the first, -7% for the second.

Going from O=C(Nc1nccs1)C1CC2CCCCC2N1S(=O)(=O)c1ccc2c(c1)OCCO2 (stereo unspecified) to Cc1cc(-c2noc(CN3CCC(OC[C@H]4CCCO4)CC3)n2)ccc1F, the “% Inhibition” value rises from -5% to -3%.

Going from Cc1n[nH]c(C)c1[C@H](C)NC(=O)CCC(F)(F)F to CC(C)NC(=O)N1CCC(c2nnc(-c3ccc(F)cc3)o2)CC1, the “% Inhibition” value falls from 5% to -5%.

First: COc1ccc(Nc2nc(N3CCCC3)nc3c2cnn3C)cc1Cl
Second: COc1ccc(Nc2nc(-c3ccccc3)nc3ccccc23)cc1S(=O)(=O)N1CCCCC1
The “% Inhibition” value of the first is higher: 27% for the first, 0% for the second.

Compared with NC(=O)C1CCN(c2nc(-c3ccccc3)nc3oc(-c4ccccc4)nc23)CC1, COc1cc(NC(=O)c2ccc(Oc3nccnc3N3CCC(C)CC3)cc2)cc(OC)c1 is higher in “% Inhibition” value: -5% for the first, 24% for the second.

Compared with CCN1CCN(c2nc3ncn(CC(=O)NCc4ccccc4Cl)c(=O)c3s2)CC1, CCCN(CCO)Cc1ccc2c3c(cccc13)C(=O)OC2 is higher in “% Inhibition” value: -9% for the first, 2% for the second.

First: Nc1ccc(OCCO)c(OCCO)c1
Second: O=C(c1coc(COc2cccc3cccnc23)n1)N1CCCO1
The “% Inhibition” value of the first is higher: 6% for the first, -16% for the second.

COc1ccc(C[C@]2(C)OC(c3ccc(C(C)(C)C)cc3)=NN2C(C)=O)cc1 and COc1ccc(S(=O)(=O)N[C@H]2CO[C@@H](CN3CCC(F)(F)CC3)[C@@H]2O)cc1 are the same in “% Inhibition” value: -3% for the first, -3% for the second.

Going from O=C(c1cc(F)c(F)c(F)c1)N1CCOC[C@H]1C1CC1 to CN(C)S(=O)(=O)Nc1cc(Br)c(F)cc1F, the “% Inhibition” value rises from -6% to 2%.

Compared with O=C1[C@@H]2Cc3c([nH]c4ccccc34)C(c3ccccc3)N2C(=O)CN1Cc1ccccc1 (stereo partly specified), CCOC1CC(NS(=O)(=O)c2ccc(N(C)C(C)=O)cc2)C1OC (stereo unspecified) is higher in “% Inhibition” value: 7% for the first, 36% for the second.

Compared with OC(c1ccc(Br)cc1)C1CCCNC1 (stereo unspecified), CC1CN(C(=O)CCc2nc(-c3ccsc3)no2)C(C)CO1 (stereo unspecified) is lower in “% Inhibition” value: -4% for the first, -19% for the second.

COc1cc(NS(=O)(=O)C(C)C)c(S(=O)(=O)Cl)cc1S(=O)(=O)Cl was tested, and the “% Inhibition” value was 4%.

Going from C[C@@]1(CCF)NC(=O)N(c2cc(-c3cccs3)on2)C1=O to Cn1c(=O)n(-c2ccc(NC(=O)c3cccs3)cc2)c(=O)n1C, the Z score rises from 0.86 to 1.28.

Compared with Cc1oc(C2CCN(C(=O)NCCc3ccccc3)CC2)nc1C(=O)N1CCCCC1, Cc1cccc(NC(=O)[C@H]2CCCN(S(=O)(=O)c3c[nH]c(C(=O)N4CCCC4)c3)C2)c1C is higher in Z score: -0.11 for the first, 1.84 for the second.

First: Cc1cc(C)n([C@@H](CNS(=O)(=O)c2cccnc2)c2cccs2)n1
Second: Cc1cc2nc(C(=O)NCCOc3ccccc3F)cc(C)n2n1
The Z score of the first is lower: 0.15 for the first, 0.2 for the second.

First: O=C(C1CCOCC1)N1CC[C@H](Oc2cc(C(F)(F)F)ccn2)C1
Second: CN(c1nc2c(c(N3CCOCC3)n1)CN(C(=O)c1cccc(C(F)(F)F)c1)CC2)C1CCCCC1
The Z score of the first is higher: 2.41 for the first, 0.17 for the second.

First: CCO[C@@H](C)c1ncc(C(=O)NCCC2(OC)CCC2)s1
Second: CCC(CC)N1C[C@@H](C(=O)N(C)c2ncc(OC)cn2)CC1=O
The Z score of the first is higher: 0.87 for the first, -1.11 for the second.

First: CCCOc1ccc2c(c1)OCC(C(=O)NCc1nncn1CC)=C2
Second: CCCN(Cc1c(C(C)C)nn(-c2ccccc2)c1Oc1cccc(F)c1)C(=O)c1ccc(Cl)cc1
The Z score of the first is lower: -1.17 for the first, 0.95 for the second.

First: Cc1cn(C)nc1NC(=O)N1CCCCC[C@H]1C(F)(F)F
Second: CC(C)Oc1nc(-c2ccc(C(F)(F)F)cc2)n(-c2ccc(NC(=O)C3CCC3)cc2)n1
The Z score of the first is higher: 2.11 for the first, -1.17 for the second.

Going from Cc1ccc(-c2nc(NCc3ccco3)n(S(C)(=O)=O)n2)cc1 to COc1ccc(NC(=O)c2ccc(NCc3ccon3)cc2)cc1, the Z score falls from 0.72 to -1.19.

Going from O=C1CCCN1c1ccc(CNS(=O)(=O)c2cn[nH]c2)cc1 to Cc1cc(-c2ccc(N3CCOCC3)cc2)c(=O)[nH]n1, the Z score falls from 2.15 to 1.04.

Compared with CCN(C)c1ccccc1NC(=O)N(CC(F)F)C1CC1, Cc1cc(C)c(CNC(=O)[C@@H]2CCCc3ccccc32)c(=O)[nH]1 is higher in Z score: 0.32 for the first, 0.67 for the second.

First: CCOC(=O)c1c(C)c(CCC(=O)NCCN2CCCCC2)n(C)c1C
Second: Cc1noc(C)c1CC(=O)Nc1c(N2CCCC2)nn(C)c1C
The Z score of the first is lower: 0.8 for the first, 2.05 for the second.

First: CCOC[C@@H]1CC(F)(F)CN1C1CN(C(=O)c2c[nH]c3ccccc23)C1
Second: O=C(Cc1ccccc1F)N1CC(n2cnnc2C2CCOCC2)C1
The Z score of the first is higher: 1.64 for the first, -5.27 for the second.

First: CC(C)CCn1ccc(NC2CCN(C)CC2)n1
Second: CCCN1CCC(Nc2cc(-c3ccncc3)nc3ccnn23)CC1
The Z score of the first is higher: 1.91 for the first, -1.44 for the second.

Going from Cc1ccc([C@H]2c3cc(OCc4ccc(C(=O)NCC(C)C)o4)ccc3CCN2C(=O)C2CCCC2)cc1 to O=C(NC1CCN(C2CC2)CC1)c1ccc2c(c1)C(=O)N(CCc1ccccc1)C2=O, the Z score rises from 1.23 to 1.46.

Compared with CC(C)(C)n1ncnc1-c1ccccc1-c1nnn[nH]1, Cc1oc2ccccc2c1CNc1cnccn1 is higher in Z score: 0.08 for the first, 1.24 for the second.

First: CN(Cc1nnc2n1CCC2)C(=O)[C@@]1(C)CC1(Cl)Cl
Second: Cc1ccc(CNC(=O)Nc2nnc(N3CCC[C@H](C)C3)s2)cc1
The Z score of the first is higher: 2 for the first, 1.05 for the second.

Going from O=C(Nc1nccs1)C1CC2CCCCC2N1S(=O)(=O)c1ccc2c(c1)OCCO2 (stereo unspecified) to Cc1cc(-c2noc(CN3CCC(OC[C@H]4CCCO4)CC3)n2)ccc1F, the Z score falls from 0.71 to 0.39.

First: Cc1n[nH]c(C)c1[C@H](C)NC(=O)CCC(F)(F)F
Second: CC(C)NC(=O)N1CCC(c2nnc(-c3ccc(F)cc3)o2)CC1
The Z score of the first is lower: -0.71 for the first, 1.07 for the second.

First: COc1ccc(Nc2nc(N3CCCC3)nc3c2cnn3C)cc1Cl
Second: COc1ccc(Nc2nc(-c3ccccc3)nc3ccccc23)cc1S(=O)(=O)N1CCCCC1
The Z score of the first is lower: -3.01 for the first, -0.07 for the second.

Going from NC(=O)C1CCN(c2nc(-c3ccccc3)nc3oc(-c4ccccc4)nc23)CC1 to COc1cc(NC(=O)c2ccc(Oc3nccnc3N3CCC(C)CC3)cc2)cc(OC)c1, the Z score falls from 0.66 to -3.75.

Compared with CCN1CCN(c2nc3ncn(CC(=O)NCc4ccccc4Cl)c(=O)c3s2)CC1, CCCN(CCO)Cc1ccc2c3c(cccc13)C(=O)OC2 is lower in Z score: 1.47 for the first, -0.43 for the second.

Compared with Nc1ccc(OCCO)c(OCCO)c1, O=C(c1coc(COc2cccc3cccnc23)n1)N1CCCO1 is higher in Z score: -0.83 for the first, 2.3 for the second.

Going from COc1ccc(C[C@]2(C)OC(c3ccc(C(C)(C)C)cc3)=NN2C(C)=O)cc1 to COc1ccc(S(=O)(=O)N[C@H]2CO[C@@H](CN3CCC(F)(F)CC3)[C@@H]2O)cc1, the Z score falls from 0.52 to 0.43.

First: O=C(c1cc(F)c(F)c(F)c1)N1CCOC[C@H]1C1CC1
Second: CN(C)S(=O)(=O)Nc1cc(Br)c(F)cc1F
The Z score of the first is higher: 1.11 for the first, -0.44 for the second.

First: O=C1[C@@H]2Cc3c([nH]c4ccccc34)C(c3ccccc3)N2C(=O)CN1Cc1ccccc1 (stereo partly specified)
Second: CCOC1CC(NS(=O)(=O)c2ccc(N(C)C(C)=O)cc2)C1OC (stereo unspecified)
The Z score of the first is higher: -0.89 for the first, -3.23 for the second.

Compared with OC(c1ccc(Br)cc1)C1CCCNC1 (stereo unspecified), CC1CN(C(=O)CCc2nc(-c3ccsc3)no2)C(C)CO1 (stereo unspecified) is higher in Z score: 0.43 for the first, 3.63 for the second.

With COc1cc(NS(=O)(=O)C(C)C)c(S(=O)(=O)Cl)cc1S(=O)(=O)Cl the Z score was -0.47.

Reference: ChEMBL document CHEMBL4888484, “Replenishing the malaria drug discovery pipeline: Screening and hit evaluation of the MMV Hit Generation Library 1 (HGL1) against asexual blood stage Plasmodium falciparum ,using a nano luciferase reporter read-out” (2022)
